Measurements: the supplement of paper PMC8728848
Some of the results follow.

How the values were obtained:
Test in all cases: glycan array binding signal (z-score within array); higher = stronger binding
Settings in all cases: glycan notation: IUPAC condensed, linker removed
[1] = molecular target: Glc(b1-4)Glc
Outline: (§1)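 Glycan array binding is given as a within-array Z-score, which can be read as non-binding when negative. The arrays, 3228 of them, came from the Consortium for Functional Glycomics database and were retained only where the protein sequence was available. Z-scores were averaged across arrays of the same protein sequence at different concentrations or buffers and across linkers.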

[2] = molecular target: Glc(b1-6)Glc
Outline: as §1

[3] = molecular target: GlcA(b1-3)Gal
Outline: as §1

[4] = molecular target: GlcA(b1-3)GlcNAc
Outline: as §1

[5] = molecular target: GlcA(b1-6)Gal
Outline: as §1

[6] = molecular target: GlcA3S(b1-3)Gal(b1-4)GlcNAc(b1-2)Man
Outline: as §1

[7] = molecular target: GlcA3S(b1-3)Gal(b1-4)GlcNAc(b1-3)Gal(b1-4)Glc
Outline: as §1

[8] = molecular target: GlcNAc(a1-3)Gal(b1-4)GlcNAc
Outline: as §1

[9] = molecular target: GlcNAc(a1-4)Gal(b1-3)GlcNAc
Outline: as §1

[10] = molecular target: GlcNAc(a1-4)Gal(b1-4)GalNAc
Outline: as §1

[11] = molecular target: GlcNAc(a1-4)Gal(b1-4)GlcNAc
Outline: as §1

[12] = molecular target: GlcNAc(a1-4)Gal(b1-4)GlcNAc(b1-3)Gal(b1-4)Glc
Outline: as §1

[13] = molecular target: GlcNAc(a1-4)Gal(b1-4)GlcNAc(b1-3)Gal(b1-4)GlcNAc
Outline: as §1

[14] = molecular target: GlcNAc(a1-4)Gal(b1-4)GlcNAc(b1-3)Gal(b1-4)GlcNAc(b1-3)Gal(b1-4)GlcNAc
Outline: as §1

[15] = molecular target: GlcNAc(a1-4)Gal(b1-4)GlcNAc(b1-3)Gal(b1-4)[Fuc(a1-3)]GlcNAc(b1-3)Gal(b1-4)[Fuc(a1-3)]GlcNAc
Outline: as §1

[16] = molecular target: GlcNAc(a1-6)Gal(b1-4)GlcNAc
Outline: as §1

[17] = molecular target: GlcNAc(b1-2)Gal(b1-3)GalNAc
Outline: as §1

[18] = molecular target: GlcNAc(b1-2)Man(a1-3)[GlcNAc(b1-2)Man(a1-6)]Man(b1-4)GlcNAc(b1-4)GlcNAc
Outline: as §1

[19] = molecular target: GlcNAc(b1-2)Man(a1-3)[GlcNAc(b1-2)Man(a1-6)]Man(b1-4)GlcNAc(b1-4)[Fuc(a1-6)]GlcNAc
Outline: as §1

[20] = molecular target: GlcNAc(b1-2)Man(a1-3)[GlcNAc(b1-4)][GlcNAc(b1-2)Man(a1-6)]Man(b1-4)GlcNAc(b1-4)GlcNAc
Outline: as §1

[21] = molecular target: GlcNAc(b1-2)Man(a1-3)[GlcNAc(b1-4)][GlcNAc(b1-2)Man(a1-6)]Man(b1-4)GlcNAc(b1-4)[Fuc(a1-6)]GlcNAc
Outline: as §1

[22] = molecular target: GlcNAc(b1-2)[GlcNAc(b1-4)]Man(a1-3)[GlcNAc(b1-2)Man(a1-6)]Man(b1-4)GlcNAc(b1-4)GlcNAc
Outline: as §1

[23] = molecular target: GlcNAc(b1-2)[GlcNAc(b1-4)]Man(a1-3)[GlcNAc(b1-4)][GlcNAc(b1-2)Man(a1-6)]Man(b1-4)GlcNAc(b1-4)GlcNAc
Outline: as §1

[24] = molecular target: GlcNAc(b1-2)[GlcNAc(b1-4)]Man(a1-3)[GlcNAc(b1-4)][GlcNAc(b1-2)[GlcNAc(b1-6)]Man(a1-6)]Man(b1-4)GlcNAc(b1-4)GlcNAc
Outline: as §1

[25] = molecular target: GlcNAc(b1-2)[GlcNAc(b1-4)]Man(a1-3)[GlcNAc(b1-4)][GlcNAc(b1-2)[GlcNAc(b1-6)]Man(a1-6)]Man(b1-4)GlcNAc(b1-4)[Fuc(a1-6)]GlcNAc
Outline: as §1

[26] = molecular target: GlcNAc(b1-2)[GlcNAc(b1-6)]Man(a1-6)[GlcNAc(b1-2)Man(a1-3)]Man(b1-4)GlcNAc(b1-4)GlcNAc
Outline: as §1

[27] = molecular target: GlcNAc(b1-2)[GlcNAc(b1-6)]Man(a1-6)[GlcNAc(b1-2)Man(a1-3)]Man(b1-4)GlcNAc(b1-4)[Fuc(a1-6)]GlcNAc
Outline: as §1

[28] = molecular target: GlcNAc(b1-2)[GlcNAc(b1-6)]Man(a1-6)[GlcNAc(b1-4)][GlcNAc(b1-2)Man(a1-3)]Man(b1-4)GlcNAc(b1-4)GlcNAc
Outline: as §1

[29] = molecular target: GlcNAc(b1-3)Fuc
Outline: as §1

[30] = molecular target: GlcNAc(b1-3)Gal
Outline: as §1

[31] = molecular target: GlcNAc(b1-3)Gal(b1-3)GalNAc
Outline: as §1

[32] = molecular target: GlcNAc(b1-3)Gal(b1-4)Glc
Outline: as §1

[33] = molecular target: GlcNAc(b1-3)Gal(b1-4)GlcNAc
Outline: as §1

[34] = molecular target: GlcNAc(b1-3)Gal(b1-4)GlcNAc(b1-2)Man(a1-3)[GlcNAc(b1-3)Gal(b1-4)GlcNAc(b1-2)Man(a1-6)]Man(b1-4)GlcNAc(b1-4)GlcNAc
Outline: as §1

[35] = molecular target: GlcNAc(b1-3)Gal(b1-4)GlcNAc(b1-2)Man(a1-3)[GlcNAc(b1-3)Gal(b1-4)GlcNAc(b1-2)Man(a1-6)]Man(b1-4)GlcNAc(b1-4)[Fuc(a1-6)]GlcNAc
Outline: as §1

[36] = molecular target: GlcNAc(b1-3)Gal(b1-4)GlcNAc(b1-2)[GlcNAc(b1-3)Gal(b1-4)GlcNAc(b1-6)]Man(a1-6)[GlcNAc(b1-3)Gal(b1-4)GlcNAc(b1-2)Man(a1-3)]Man(b1-4)GlcNAc(b1-4)GlcNAc
Outline: as §1

[37] = molecular target: GlcNAc(b1-3)Gal(b1-4)GlcNAc(b1-3)Gal(b1-4)GlcNAc
Outline: as §1

[38] = molecular target: GlcNAc(b1-3)Gal(b1-4)GlcNAc(b1-3)Gal(b1-4)GlcNAc(b1-2)Man(a1-3)[GlcNAc(b1-3)Gal(b1-4)GlcNAc(b1-3)Gal(b1-4)GlcNAc(b1-2)Man(a1-6)]Man(b1-4)GlcNAc(b1-4)GlcNAc
Outline: as §1

[39] = molecular target: GlcNAc(b1-3)Gal(b1-4)GlcNAc(b1-3)Gal(b1-4)GlcNAc(b1-2)Man(a1-3)[GlcNAc(b1-3)Gal(b1-4)GlcNAc(b1-3)Gal(b1-4)GlcNAc(b1-2)Man(a1-6)]Man(b1-4)GlcNAc(b1-4)[Fuc(a1-6)]GlcNAc
Outline: as §1

[40] = molecular target: GlcNAc(b1-3)Gal(b1-4)GlcNAc(b1-3)Gal(b1-4)GlcNAc(b1-2)[GlcNAc(b1-3)Gal(b1-4)GlcNAc(b1-3)Gal(b1-4)GlcNAc(b1-6)]Man(a1-6)[GlcNAc(b1-3)Gal(b1-4)GlcNAc(b1-3)Gal(b1-4)GlcNAc(b1-2)Man(a1-3)]Man(b1-4)GlcNAc(b1-4)[Fuc(a1-6)]GlcNAc
Outline: as §1

[41] = molecular target: GlcNAc(b1-3)Gal(b1-4)GlcNAc(b1-3)Gal(b1-4)GlcNAc(b1-3)Gal(b1-4)GlcNAc(b1-2)Man(a1-3)[GlcNAc(b1-3)Gal(b1-4)GlcNAc(b1-3)Gal(b1-4)GlcNAc(b1-3)Gal(b1-4)GlcNAc(b1-2)Man(a1-6)]Man(b1-4)GlcNAc(b1-4)GlcNAc
Outline: as §1

[42] = molecular target: GlcNAc(b1-3)Gal(b1-4)GlcNAc(b1-3)Gal(b1-4)GlcNAc(b1-3)Gal(b1-4)GlcNAc(b1-2)Man(a1-3)[GlcNAc(b1-3)Gal(b1-4)GlcNAc(b1-3)Gal(b1-4)GlcNAc(b1-3)Gal(b1-4)GlcNAc(b1-2)Man(a1-6)]Man(b1-4)GlcNAc(b1-4)[Fuc(a1-6)]GlcNAc
Outline: as §1

[43] = molecular target: GlcNAc(b1-3)Gal(b1-4)GlcNAc(b1-3)Gal(b1-4)GlcNAc(b1-3)Gal(b1-4)GlcNAc(b1-2)[GlcNAc(b1-3)Gal(b1-4)GlcNAc(b1-3)Gal(b1-4)GlcNAc(b1-3)Gal(b1-4)GlcNAc(b1-6)]Man(a1-6)[GlcNAc(b1-3)Gal(b1-4)GlcNAc(b1-3)Gal(b1-4)GlcNAc(b1-3)Gal(b1-4)GlcNAc(b1-2)Man(a1-3)]Man(b1-4)GlcNAc(b1-4)[Fuc(a1-6)]GlcNAc
Outline: as §1

[44] = molecular target: GlcNAc(b1-3)Gal(b1-4)GlcNAc(b1-3)Gal(b1-4)GlcNAc(b1-3)Gal(b1-4)GlcNAc(b1-3)Gal(b1-4)GlcNAc(b1-2)Man(a1-3)[GlcNAc(b1-3)Gal(b1-4)GlcNAc(b1-3)Gal(b1-4)GlcNAc(b1-3)Gal(b1-4)GlcNAc(b1-3)Gal(b1-4)GlcNAc(b1-2)Man(a1-6)]Man(b1-4)GlcNAc(b1-4)GlcNAc
Outline: as §1

[45] = molecular target: GlcNAc(b1-3)Gal(b1-4)GlcNAc(b1-3)Gal(b1-4)GlcNAc(b1-3)Gal(b1-4)GlcNAc(b1-3)Gal(b1-4)GlcNAc(b1-2)Man(a1-3)[GlcNAc(b1-3)Gal(b1-4)GlcNAc(b1-3)Gal(b1-4)GlcNAc(b1-3)Gal(b1-4)GlcNAc(b1-3)Gal(b1-4)GlcNAc(b1-2)Man(a1-6)]Man(b1-4)GlcNAc(b1-4)[Fuc(a1-6)]GlcNAc
Outline: as §1

B1: CFEM-CGl (Candida glabrata), Q6FRS0 (protein)
chain: VLATPPACLLACVAQVSKQSSQCHTLNQVGCFCENENTAIKNCLDSICPNGNSDAAYTAFKNSCGDVGKAVASV
glycan array binding signal (z-score) [1]: -0.222
glycan array binding signal (z-score) [2]: -0.428
glycan array binding signal (z-score) [3]: -0.23
glycan array binding signal (z-score) [4]: -0.457
glycan array binding signal (z-score) [5]: 1.84
glycan array binding signal (z-score) [6]: -0.246
glycan array binding signal (z-score) [7]: 0.183
glycan array binding signal (z-score) [8]: -0.424
glycan array binding signal (z-score) [9]: -0.034
glycan array binding signal (z-score) [10]: 0.045
glycan array binding signal (z-score) [11]: -0.237
glycan array binding signal (z-score) [12]: -0.384
glycan array binding signal (z-score) [13]: -0.046
glycan array binding signal (z-score) [14]: -0.334
glycan array binding signal (z-score) [15]: 0.293
glycan array binding signal (z-score) [16]: 0.265
glycan array binding signal (z-score) [17]: -0.401
glycan array binding signal (z-score) [18]: -0.332
glycan array binding signal (z-score) [19]: -0.127
glycan array binding signal (z-score) [20]: -0.378
glycan array binding signal (z-score) [21]: -0.359
glycan array binding signal (z-score) [22]: -0.329
glycan array binding signal (z-score) [23]: 0.203
glycan array binding signal (z-score) [24]: -0.379
glycan array binding signal (z-score) [25]: -0.628
glycan array binding signal (z-score) [26]: 0.136
glycan array binding signal (z-score) [27]: -0.226
glycan array binding signal (z-score) [28]: -0.424
glycan array binding signal (z-score) [29]: -0.545
glycan array binding signal (z-score) [30]: -0.244
glycan array binding signal (z-score) [31]: -0.243
glycan array binding signal (z-score) [32]: -0.467
glycan array binding signal (z-score) [33]: -0.164
glycan array binding signal (z-score) [34]: -0.076
glycan array binding signal (z-score) [35]: -0.067
glycan array binding signal (z-score) [36]: 0.443
glycan array binding signal (z-score) [37]: -0.321
glycan array binding signal (z-score) [38]: 3.84
glycan array binding signal (z-score) [39]: 1.29
glycan array binding signal (z-score) [40]: 0.75
glycan array binding signal (z-score) [41]: -0.223
glycan array binding signal (z-score) [42]: 1.97
glycan array binding signal (z-score) [43]: 0.185
glycan array binding signal (z-score) [44]: -0.264
glycan array binding signal (z-score) [45]: -0.272
